According to paper PMC7938106, “In vitro complex formation of human PYRIN domain-only protein 3 prevented by self-oligomerization of ASC PYD domain” (Saudi Journal of Biological Sciences, 2021):

Biological target: the molecule itself
Assay: SEC; each protein alone on Superdex 200 in 20 mM Tris-HCl pH 8.0, 150 mM NaCl

B1: ASC PYD domain, […] (domain or fragment)
chain: not shown
notes: ASC (apoptosis-associated speck-like protein containing a CARD), human, N-terminal PYD domain, […]; The vector probably adds linker residues before the His6; also called ASCPYD ([…] aa); ASC-PYD-2
B1: binds.
